From the RNAGym collection of RNA variant scans (doi:10.7554/elife.90254)
Read counts are not given, so values of variants with three or more changes are uncertain.

B1: LINE1-mini (parent)
chain: GGCAGAGCUCAACACAGCGUGGCAAAGUGGCUGUGGCUAGACUGCC

Variants of: B1
Test: self-cleavage, relative activity (ratio to wild type); higher = more cleavage; in vitro, sequencing; the parent is a self-cleaving ribozyme

Variant | self-cleavage
G17U U28C C42G U43G | 0.02
U28C G33U G35A | 0.08
G5U A6U G7U G19A G36U | 0.14
C8A C18G C45G | 0.1
C8U A11U A24U | 0.06
C23A G33C U38A | 0.02
G17A C18A U28A G36C A39U | 0
G1C G2A C3G C18G G35U A41G | 0.07
C23U U28G C31U G35A G36U C42U | 0.08
G1C G2U C13A C37U | 0.09
G5C C18G G19A U20G G29C | 0.02
G5U G22U G29U G44A | 0.06
A26C G27A A39C | 1.57
G7A C8U G17A G35C | 0.13
A4U G5A A26C G36U | 0.23
G7C U9G G21A C31A A39C C42U C45U | 0.02
A6G C15G G17U G19C G22C C23G G29U A39C U43C | 0.02
G22U U43G C45A | 0.35
A4G G27A A39G | 0.09
G30U U32A A41G C45A | 0.06
A4C C8U A12U | 0.01
G5A G19C A25G U34A C37U | 0.03
C3A U20C G22C G27C | 0.07
G7C G21A G27A | 0.03

Variant | self-cleavage
G17C G21U C42U | 0.34
C23U G30A C31U C37A G44U | 2.26
G1U A25G C42A | 0.03
G1C C13A G17U G33C U34C G40C | 0.02
A11G C23G C31A | 0.01
A6U C15U G21C A41U G44A | 0.09
C18G A24G G35A C46A | 0.04
A4U U28G G40C | 0.04
G21U A25U G44C | 1
G5U U20A G44A | 0.07
A16G G21A U28C C37U | 0.04
G29C G36C C42G C46U | 0.12
G19A C31A C37A | 0.17
C3U G5U C10A A24C A25G G44C | 0.01
C8G G22A A26G C31A C45U | 0.02
A12G C23A G29U | 0.02
G5U C8A A14C U28G G30C U34A | 0.04
A24U G27C C46G | 0.39
A4C C10G A39C | 0.01
G19A U38G C45A | 0.01
G21U G22A G35U A39G | 0.07
G5U A11C G44U | 0.03
C8U A26U C37U | 0.56
G5U G22C U32A U38G | 0

Variant | self-cleavage
C18U A25U U38A | 1.17
A16C G17U G36C U38C | 0.02
G2C U9C G35U C46U | 0.03
G1A C3U C8U G27U G29U C42A | 0.55
G2A C10A G27U U34G G44U | 0.02
C3U A12G U20A | 0.01
C8U G29U U34C G36U | 0.15
G1C C23G G30C U32C G33C U43A | 0
U9A G17C G22A | 0.03
A6G A16G G36C C46G | 0.03
A11G C18U G21C U34C | 0.03
A12U C15A C31G | 0.02
C18U G36A C37U C46G | 0.06
G2A A16U U20C G35C G40U G44C | 0.11
C10G G17A G21U C42A | 0.01
G19U A26U C46A | 1.32
A4U C8G C18A G40U | 0.01
A6C A16G G17U G44U | 0.08
C3U A4U C15U G22C C31G A41G | 0.02
C8U C23U U28C C37U U38A G44U | 0.15
A12U C15A U20A G22A | 0.06
G2A C18U C37G | 0.92
G5A C13G C15U G30C | 0.06
G5U G40C C42A C45G | 0.01

Variant | self-cleavage
G1C C10A C15A G36A | 0.02
G5C A26G A41G G44U | 0.05
A6G A12G G22U | 0.01
G7A G17A U28C | 0.6
G30C U38G U43C | 0
G5U G29A U32A G33U C42G | 0.01
G2C G17U C37G | 0.24
C3A C13A A26U G27A U38G | 0.06
A24G A39U A41G | 0.2
U20A G22C G35A A39U | 0.62
G7C C8G C13U G21C G35C U38C | 0.03
C23G G29A C45G | 0.59
G1U G2A C23A A24U G36U A41G | 0.01
A14U G17C G29A U38C | 0.02
A4C C8G G22U U38A | 0
U32A G33U G40U | 0
G5C A6G A11U G17A A26G C31U | 0.02
U9A G17U C18U G44U | 0.02
C8G C13U C15A C23U G33U | 0.03
C23G A26U U38C U43A | 0.04
A4G A12U G36A C45A | 0.14
A16U G30U G35A | 0.01
G1C C15A A25G G36A | 0.05
A4C G5A C13G G22A A24C | 0.09

Variant | self-cleavage
C8G U9G G21U G33A U34G A39G G40A C42U | 0
C10A G33U G36C | 0.03
C3A G19A A26C | 1.82
A11U C31U U34C C42G | 0.01
G22U C42U C45U | 0.6
G5U C10A G17A A41C | 0.02
A6C A12U U28A | 0.08
A12U G21C G40U U43C C46U | 0.03
C15G G17C C45U | 0.1
G5U G7A G22C C45U | 0.2
C23U G35U C37U | 0.03
G1A G17C C18A U20G | 0.09
C10G C31G A41C | 0.01
G2U C18A G35C G36A | 0.12
U9C G17U A24G G35A | 0
A4C G22U A41C | 0.02
A14U C15A G30A C31U U34G C37G A41C C46A | 0.01
G27C G29C G35A | 0.13
C31U U32C A39G G44A | 0.02
C3A G5C G22A | 0.25
G5U U28A G44U C45A | 0.25
G22C G36A G40A | 0.13
G2C G17C G19U | 0.27
C15A A26U G33U U43A | 0.09

Variant | self-cleavage
G22A C23G G30A | 2.03
C15A C18G C31A U32G U34C | 0.08
G17A G22C U28G G30A C31U C46U | 0.09
C15A G17U G22A A26U C42U | 0.05
G7C G17C G40A | 0.1
C8G C15G G19C G21U | 0.03
A6C G33C C37U | 0.04
G2U C15G U20G A26U C37A C46U | 0.01
G2C A4C A25G U38C | 0.06
G5U C10A G17U G35U | 0.06
U20A G44A C45U C46A | 0.02
A6G G19C A24C C37U G44A | 0.01
G2A G21U U43C | 0.12
G5C C13U A16C | 0.04
G7A A14U C18G G33A | 0.09
G21U U28G G36A | 0.06
G1U A6G G7C G27C | 0.03
A16C A25U G35A G40U | 0.05
A11C C13G A25U U32G G40U | 0.02
G5A A12C G29C G36A | 0.04
A24G A26U C46A | 0.56
C8U A11U G21C G35C G40U | 0
C18A G33A G36A U43C | 0.02
G35A A41C U43G | 0.02

Variant | self-cleavage
G7C A11G C23U G40U C46A | 0.01
A24U C31U C42U | 0.05
G7C G17U C18A G22A G30U | 0.02
G17C C23A C31U | 0.04
G1A U32A G33C | 0.04
G2U C10A A11C C37U C46G | 0.01
C3A G17C G30U C46U | 0.11
G33U C37G U38C A39G G40C | 0.02
A25C G27C C46U | 0.63
G7U A14U A16C U28C C31U C37A | 0.02
A12G G21C C37U | 0.04
G7C A16U A25U | 0.04
C13A G22A G27U G30A | 0.16
G7U A12G A41C | 0.01
G5C C13U A24U U28A A39U | 0.02
G1C U9A A11U | 0.02
C15U A16U C23U G33A | 0.09
A6U C10A U20C G44U | 0.02
C3U C8G C10A C45U | 0.01
C13A C15U A16C G17C | 0.03
G7U C10A A16C | 0.02
C3U C10A C13G C15U G19A U34A A41G U43G | 0.01
A14C U28C G33U | 0.02
